The target of assay [1] is Sos-Dsg1(cyto), desmoglein 1 cytoplasmic tail fused to Sos (human) (UniProt Q02413). The assay can be described thus: two-hybrid; CytoTrap system in Cdc25H yeast; Sos-fused Dsg bait and pMyr prey (HeLa cDNA library in the screen, specific pMyr constructs for confirmation); growth on galactose at 37 °C indicates an interaction.
Assay [2] has as its target Sos-Dsg1(909–1049) (human) (UniProt Q02413). The description is as above.
In assay [3] the target is Dsg1-GFP (GFP-FLAG Dsg1, full length) (human) (UniProt Q02413). The assay can be described thus: co-IP; GFP immunoprecipitation with GFP-Trap beads from lysates of undifferentiated NHEKs expressing GFP, Dsg1-GFP or Dsg2-GFP, with or without ectopic Tctex constructs (1% Triton, 145 mM NaCl, 10 mM Tris-HCl pH 7.4), 2 h at 4 °C; immunoblot. Background: A western blot detects proteins with antibodies after separation by electrophoresis.

By UniProt entry, the sequences of proteins in these tests, tags left out. Where a name states a change or a piece, a line headed by the entry shows the natural chain unless it says otherwise. Chains listed by the source or under a name are the forms on record and can include a tag or linker. Residues count along the entry.
UniProt Q02413: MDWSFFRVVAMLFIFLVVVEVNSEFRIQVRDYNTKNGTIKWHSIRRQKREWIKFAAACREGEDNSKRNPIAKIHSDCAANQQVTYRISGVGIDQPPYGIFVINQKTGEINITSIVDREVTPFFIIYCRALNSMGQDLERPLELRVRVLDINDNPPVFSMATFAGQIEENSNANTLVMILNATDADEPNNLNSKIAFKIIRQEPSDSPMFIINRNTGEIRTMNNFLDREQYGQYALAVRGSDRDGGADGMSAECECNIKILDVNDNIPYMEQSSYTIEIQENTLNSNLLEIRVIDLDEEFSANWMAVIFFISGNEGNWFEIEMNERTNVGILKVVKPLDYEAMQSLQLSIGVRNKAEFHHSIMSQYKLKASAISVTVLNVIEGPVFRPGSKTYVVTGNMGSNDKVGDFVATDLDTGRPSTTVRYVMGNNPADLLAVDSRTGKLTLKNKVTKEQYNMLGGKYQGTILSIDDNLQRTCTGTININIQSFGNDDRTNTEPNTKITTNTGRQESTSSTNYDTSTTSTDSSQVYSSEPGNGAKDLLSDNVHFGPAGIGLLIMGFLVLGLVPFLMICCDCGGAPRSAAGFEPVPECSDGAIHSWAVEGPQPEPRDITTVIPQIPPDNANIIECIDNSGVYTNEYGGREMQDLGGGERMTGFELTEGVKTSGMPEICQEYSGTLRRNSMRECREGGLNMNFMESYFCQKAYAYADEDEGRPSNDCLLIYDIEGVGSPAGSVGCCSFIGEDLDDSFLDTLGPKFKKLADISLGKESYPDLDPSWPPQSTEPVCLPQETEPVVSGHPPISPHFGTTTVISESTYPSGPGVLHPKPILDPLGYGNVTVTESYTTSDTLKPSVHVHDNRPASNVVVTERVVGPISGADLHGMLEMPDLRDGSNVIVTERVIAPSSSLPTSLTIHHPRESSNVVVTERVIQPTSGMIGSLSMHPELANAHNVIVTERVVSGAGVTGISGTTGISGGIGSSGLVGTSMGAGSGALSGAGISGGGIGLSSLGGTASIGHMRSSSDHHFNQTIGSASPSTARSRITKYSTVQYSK
Dsg1-GFP (GFP-FLAG Dsg1, full length): residues 50-1049 of Q02413
Dsg1-Δ569, Flag-tagged Dsg1 construct containing only the cytoplasmic domains: residues 570-1049 of Q02413
Sos-Dsg1(909–1049): residues 909-1049 of Q02413
UniProt Q14126, residues 50-1118: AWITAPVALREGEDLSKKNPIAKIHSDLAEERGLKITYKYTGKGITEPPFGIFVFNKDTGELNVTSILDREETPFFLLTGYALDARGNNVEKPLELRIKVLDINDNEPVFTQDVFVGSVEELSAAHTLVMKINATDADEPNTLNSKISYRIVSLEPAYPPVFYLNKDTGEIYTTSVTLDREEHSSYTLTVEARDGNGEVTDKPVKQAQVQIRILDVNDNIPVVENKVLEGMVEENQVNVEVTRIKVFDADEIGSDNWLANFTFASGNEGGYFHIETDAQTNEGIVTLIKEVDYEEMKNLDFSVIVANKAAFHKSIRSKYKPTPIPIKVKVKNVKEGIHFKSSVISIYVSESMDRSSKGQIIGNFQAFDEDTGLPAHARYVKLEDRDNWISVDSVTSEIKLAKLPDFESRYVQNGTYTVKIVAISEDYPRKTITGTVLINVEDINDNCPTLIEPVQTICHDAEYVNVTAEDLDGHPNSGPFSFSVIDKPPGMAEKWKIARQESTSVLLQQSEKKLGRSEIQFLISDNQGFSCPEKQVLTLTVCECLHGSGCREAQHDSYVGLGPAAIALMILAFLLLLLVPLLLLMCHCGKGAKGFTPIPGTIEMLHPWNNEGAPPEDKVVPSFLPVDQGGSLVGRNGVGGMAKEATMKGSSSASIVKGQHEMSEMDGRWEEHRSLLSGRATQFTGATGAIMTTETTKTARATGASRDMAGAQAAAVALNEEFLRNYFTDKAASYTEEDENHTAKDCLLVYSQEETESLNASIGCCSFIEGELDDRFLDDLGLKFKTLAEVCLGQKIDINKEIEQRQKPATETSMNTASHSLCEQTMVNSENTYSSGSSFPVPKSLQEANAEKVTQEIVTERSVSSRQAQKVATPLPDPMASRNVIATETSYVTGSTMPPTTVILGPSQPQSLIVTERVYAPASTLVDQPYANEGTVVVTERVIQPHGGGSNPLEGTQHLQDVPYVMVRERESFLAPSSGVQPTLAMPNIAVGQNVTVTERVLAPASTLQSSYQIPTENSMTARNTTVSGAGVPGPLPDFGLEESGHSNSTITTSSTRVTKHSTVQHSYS
UniProt P63172: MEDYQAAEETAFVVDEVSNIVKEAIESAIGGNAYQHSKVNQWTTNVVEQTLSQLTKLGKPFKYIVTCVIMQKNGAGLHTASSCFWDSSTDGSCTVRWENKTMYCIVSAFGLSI
UniProt Q14247: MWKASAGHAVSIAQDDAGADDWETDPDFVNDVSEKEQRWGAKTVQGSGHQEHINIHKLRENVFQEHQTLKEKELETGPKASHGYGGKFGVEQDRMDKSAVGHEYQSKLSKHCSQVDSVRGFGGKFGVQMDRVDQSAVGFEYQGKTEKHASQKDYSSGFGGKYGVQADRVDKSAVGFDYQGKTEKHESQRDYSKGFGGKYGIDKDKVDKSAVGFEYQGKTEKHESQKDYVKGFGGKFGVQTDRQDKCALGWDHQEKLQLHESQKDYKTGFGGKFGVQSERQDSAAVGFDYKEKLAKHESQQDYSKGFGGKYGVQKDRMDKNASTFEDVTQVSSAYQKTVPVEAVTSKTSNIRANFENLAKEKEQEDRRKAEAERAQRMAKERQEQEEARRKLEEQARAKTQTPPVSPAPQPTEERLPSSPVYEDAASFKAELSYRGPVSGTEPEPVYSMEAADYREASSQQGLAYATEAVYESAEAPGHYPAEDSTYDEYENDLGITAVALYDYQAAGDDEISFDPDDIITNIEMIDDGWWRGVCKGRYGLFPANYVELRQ

Assay [4] has as its target endogenous desmoglein 1 of differentiated keratinocytes (human (endogenous in NHEK)) (UniProt Q02413). Nature of the assay: proximity ligation; Duolink in situ PLA in differentiated NHEKs with primary antibodies against Dsg1 or E-cadherin and Tctex-1; with or without Dsg1 or Tctex-1 knockdown.
The target in assay [5] is endogenous desmoglein 2 of keratinocytes (human (endogenous in NHEK)) (UniProt Q14126). Nature of the assay: proximity ligation; Duolink in situ PLA in undifferentiated NHEKs with ectopic Dsg1-FL; primary antibodies against Dsg1, E-cadherin or Dsg2 and Tctex-1; with or without Tctex-1 knockdown.
Assay [6] concerns the target Dsg1-FL-Flag, ectopic Dsg1 full length (human) (UniProt Q02413). The description is as above.
The target in assay [7] is Dsg1-Δ569, Flag-tagged Dsg1 construct containing only the cytoplasmic domains (human) (UniProt Q02413). Nature of the assay: co-IP; ectopic FLAG-tagged Dsg1 constructs immunoprecipitated from NHEK lysates with M2-agarose beads (1% Triton, 145 mM NaCl, 10 mM Tris-HCl pH 7.4), 2 h at 4 °C; blot probed for Tctex-1; cells expressing only GFP as control.
Assay [8] has as its target Dsg1-FL-Flag, ectopic Dsg1 full length (human) (UniProt Q02413). Described as above.
For assay [9] the target is unchanged. The assay can be described thus: proximity ligation; Duolink in situ PLA in undifferentiated NHEKs retrovirally transduced with GFP, Dsg1-FL-Flag, Dsg1-909-Flag or Dsg1-ICS-Flag; primary antibodies against Flag and Tctex-1.
Assay [10] addresses Dsg2-GFP (LZRS-GFP-FLAG Dsg2) (UniProt Q14126). Nature of the assay: co-IP; GFP immunoprecipitation with GFP-Trap beads from lysates of undifferentiated NHEKs expressing GFP, Dsg1-GFP or Dsg2-GFP, with or without ectopic Tctex constructs (1% Triton, 145 mM NaCl, 10 mM Tris-HCl pH 7.4), 2 h at 4 °C; immunoblot.

Results are given in words; binding and its absence hold for the method and conditions named. For part of these data: Binding seen in cells or lysates may run through a third protein. Some binding calls cover weakened binding; strength is not graded here.

With Myr-Tctex-1 (from UniProt P63172 1-113), the binding entry in assay [1] and in assay [2] was “binds” throughout.

Regarding “Tctex-t94e-Flag, Tctex-1 phosphomimetic mutant T94E (from UniProt P63172 1-113)”, the binding result in assay [3] is given as “binds”.

Turning to “Tctex-wt-Flag, ectopic wild type Tctex-1 (from UniProt P63172 1-113)”, the binding result in assay [3] is given as “binds”.

Consider “endogenous Tctex-1 of keratinocytes (from UniProt P63172 1-113)”, for which the binding result is “binds” in [4]; “no binding” in assay [5]; “binds” in [6]; “binds” in assay [7]; “binds” in assay [8]; “binds” in assay [9].

As to “endogenous cortactin of keratinocytes (from UniProt Q14247 1-550)”, the binding result is reported as “no binding” in assay [10] and “binds” in [3].

These data come from publication PMC5849617.
